Results on 52 molecules are retold here after PMC12040169 (PLOS Biology, 2025).

The structures appear in SMILES notation. The list shows a part of the results.

This assay has as its system T1, C. trachomatis L2/434/Bu expressing GFP (CTL2-GFP).
T1 construct: L2/434/Bu GFP intracellular growth in HeLa cells
Also on record: species or system HeLa; C. trachomatis total inclusion area by high-content imaging, normalised to DMSO. To be noted: total inclusion area; 28.5 h, 10 µM; inhibitor. Summed up: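 After bulk GFP and resorufin fluorescence reads, cells were fixed, stained with Hoechst and imaged by high-content microscopy. Inclusion area and number (GFP) stood in for chlamydial growth, nuclei count (Hoechst) for host cell viability. MICs were derived as for the bulk readout.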
Take `O=C1CCCN1CC#CCN1CCN(Cc2ccccc2)CC1` [CBK023770C]: the “% of control remaining” value is given as 80.3524.

With `CC1(C)C(=O)NCCN1C(=O)Cn1cnc2ccccc21` [CBK281856], the “% of control remaining” value came to 102.015.

On to `CN1CCN(c2nc(-c3ccc(-c4ccccc4)cc3)cnc2N)CC1` [CBK063421], for which the “% of control remaining” value is recorded as 73.6754.

On to `NC(=O)c1c(NC(=O)CSc2nnc(-c3ccccc3)n2CC2CCCO2)sc2c1CCC2` (stereo not shown) [CBK084789], for which the “% of control remaining” value stood at 90.6617.

As to `Cc1cc(NC(=O)C(C)OC(=O)C(NC(=O)OC(C)(C)C)c2ccccc2)no1` (stereo not shown) [CBK170398], the “% of control remaining” value was 20.3788.

Consider `Cc1cc(N2CCOC(c3nc(C)n[nH]3)C2)c2ccc(F)c(F)c2n1` (stereo not shown) [CBK306018], for which the “% of control remaining” value was determined as 15.8753.

Turning to `CC(=O)Nc1cccc(NC(=O)N2CCNC(=O)C2)c1` [CBK155863], the “% of control remaining” value is listed as 83.5456.

For `COc1ccc(C(NC(=O)N2CCN(C(=O)NCc3ccccc3Cl)CC2)c2ccccc2C)cn1` (stereo not shown) [CBK081471], the “% of control remaining” value is recorded as 71.5236.

Consider `Cc1cc(C)cc(CC(C)Cc2nc3ccccc3[nH]2)c1` (stereo not shown) [CBK262432], for which the “% of control remaining” value came out at 89.0227.

In the case of `Cc1ccc(S(=O)(=O)N2CCN(C(=O)C3C4C=CC(C4)C3C(=O)O)CC2)cc1` (stereo not shown) [CBK286944], the “% of control remaining” value turned out to be 100.55.

As for `Cc1ccc(C2=CCN(CC(N)=O)CC2)o1` [CBK283570], the “% of control remaining” value worked out at 85.788.

Regarding `CN(CC(=O)Nc1ccc(N(C)C)cc1)Cc1ccc(F)cc1` [CBK295188], the “% of control remaining” value stood at 114.806.

For the molecule `COc1cc(CNc2nccnc2-c2cccc(CO)c2)cc(OC)c1` [CBK037403], the “% of control remaining” value worked out at 102.777.

For the molecule `O=S(=O)(Nc1cccc2ncccc12)c1ccc(OC(F)(F)F)cc1` [CBK044490], the “% of control remaining” value was determined as 78.3823.

Turning to `COCCCNC(=O)C1CCCN(c2nc3c(-c4ccccc4)csc3c(=O)[nH]2)C1` (stereo not shown) [CBK215498], the “% of control remaining” value is 116.665.

As to `CN(CCN1CCCCC1)C(=O)c1ccccc1Cn1cccn1` [CBK281904], the “% of control remaining” value worked out at 97.7235.

On to `O=C(O)CCCC(=O)N1CCN(C(=O)c2sc3cc(Cl)ccc3c2Cl)CC1` [CBK286973], for which the “% of control remaining” value is on record as 100.629.

Regarding `OB(O)c1ccc(Oc2ccc(B(O)O)cc2)cc1` [CBK261159], the “% of control remaining” value was 89.38.

On to `COCCNc1nccnc1-c1ccccc1F` [CBK038044], for which the “% of control remaining” value is on record as 109.45.

Consider `Cn1ccnc1C1(O)CCN(C(=O)CC2CCCCC2)CC1` [CBK283647], for which the “% of control remaining” value was determined as 88.2985.

In the case of `CC(C)(C)OC(=O)N1CCN(c2ccc(Cl)nn2)CC1` [CBK113381], the “% of control remaining” value is given as 92.983.

As for `O=[N+]([O-])c1ccc2nc(Sc3nc4ccccc4[nH]3)sc2c1` [CBK263356], the “% of control remaining” value was found to be 104.535.

As to `O=C(NCc1nc2ccccc2[nH]1)c1cc(-c2ccc(Cl)cc2)cnc1NCc1ccc2c(c1)OCO2` [CBK106377], the “% of control remaining” value amounted to 67.7714.

With `CC1=CC(C)C2(COC(=O)Nc3ccccc3)COC(c3cccnc3)C1C2C` (stereo not shown) [CBK262844], the “% of control remaining” value was 69.7626.

For `COC(=O)CCCC(=O)n1ccn(-c2cccc(C(F)(F)F)c2)c1=O` [CBK106580], the “% of control remaining” value is listed as 121.032.

In the case of `N/C(=N\OC(=O)c1ccccc1CCc1ccccc1)c1cccnc1` [CBK268188], the “% of control remaining” value is 59.3112.

Turning to `COc1ccc(-c2cnc3[nH]c(=O)n(CCCN4CCOCC4)c3n2)c(OC)c1OC` [CBK064249], the “% of control remaining” value was determined as 72.0209.

As to `COc1cccc(Oc2nccnc2-c2cccs2)c1` [CBK107059], the “% of control remaining” value turned out to be 76.8361.

Turning to `CCn1c(SCC(=O)Nc2ccccc2[N+](=O)[O-])nnc1-c1cc(Br)ccc1O` [CBK268201], the “% of control remaining” value stood at 102.666.

For `CC(=O)NC(c1nccs1)C1CCCN(C(=O)C2CCCC2)C1` (stereo not shown) [CBK284966], the “% of control remaining” value is recorded as 101.606.

Regarding `OCCCCn1c(-c2cccnc2)n[nH]c1=S` [CBK288365], the “% of control remaining” value is 56.4422.

In the case of `Cc1ccc(-c2ncc(OCCC(C)C)nc2N)cc1C` [CBK145145], the “% of control remaining” value stood at 75.1467.

On to `CCOC(=O)NC(=S)NC(=O)C(C)(C)C` [CBK020037], for which the “% of control remaining” value is recorded as 70.4106.

In the case of `COc1cccc(C(=O)N2CCC(NC(=O)c3ccc(C(F)(F)F)cc3)CC2)c1` [CBK155022], the “% of control remaining” value is 100.425.

`CCN1C(=O)COC[C@@H]1[C@H](O)c1ccc(NC(=O)c2ccco2)cc1` [CBK289695]: the “% of control remaining” value worked out at 104.224.

`Cc1ccc(N2C(=O)c3ccccc3C2=O)cc1` [CBK113243]: the “% of control remaining” value is listed as 87.2065.

For `Cc1cccc(N2CCN(C(=O)C3CCN(Cc4cccc(OCc5ccccc5)c4)CC3)CC2)c1C` [CBK264328G], the “% of control remaining” value came to 65.8861.

For `Cc1ccccc1C1(O)CCN(CC(O)c2ccc(F)cc2)CC1` (stereo not shown) [CBK282471], the “% of control remaining” value is given as 127.948.

Turning to `Cc1ccc(C)c(C(=O)C2=C(O)C(=O)N(CCN(C)C)C2c2cccc(Cl)c2)c1` (stereo not shown) [CBK265495], the “% of control remaining” value came to 113.91.

As to `CSCCN1CCC2(CC1)CN(CC(N)=O)c1ccccc12` [CBK126801], the “% of control remaining” value is 78.4414.

Regarding `O=C(O)CN1C(=O)C(=O)/C(=C(O)\C=C\c2ccccc2)C1c1ccccc1` (stereo not shown) [CBK286551], the “% of control remaining” value is reported as 80.4234.

In the case of `Cn1c2ccccc2c2nnc(SCCc3ccccc3)nc21` [CBK267986], the “% of control remaining” value was found to be 83.4872.

Turning to `O=C(Cn1cnnn1)N1CCc2ccccc21` [CBK200367], the “% of control remaining” value amounted to 103.068.

For the molecule `O=C(Nc1cccnc1)c1cc(S(=O)(=O)N2CCOCC2)ccc1Br` [CBK270101], the “% of control remaining” value came to 89.2984.

Consider `O=C(CCn1c(=O)oc2cc(Cl)ccc21)NCc1ccco1` [CBK269857], for which the “% of control remaining” value was found to be 55.5936.

Regarding `COc1ccc(OC)c(-n2c(SCC(=O)N3CCC(C(=O)O)CC3)nc3ccccc3c2=O)c1` [CBK296981], the “% of control remaining” value was determined as 100.195.

For `COC(=O)c1cc(NC(=O)NCCC2=CCCCC2)cc(C(=O)OC)c1` [CBK044120], the “% of control remaining” value was found to be 55.7287.

For the molecule `O=C(c1ccc(N2CCCC2)cc1)N1CCc2sccc2C1c1ccco1` (stereo not shown) [CBK285707], the “% of control remaining” value was 89.0314.

Regarding `COCCNc1cc(-c2ccncc2)ncn1` [CBK037729], the “% of control remaining” value was determined as 97.5618.

For `Cc1ccccc1OCc1nn2c(COc3ccccc3)nnc2s1` [CBK267230], the “% of control remaining” value is recorded as 71.7008.

Consider `CC(=O)NCCSc1nc2ccccc2nc1C(F)(F)F` [CBK105303], for which the “% of control remaining” value came to 107.877.

Take `Cc1c(CN2CCC(CO)C2)cnn1Cc1ccccc1` (stereo not shown) [CBK282113]: the “% of control remaining” value is 84.8487.
